# From article PMC12040169 (PLOS Biology, 2025)
# This is one part of the list.
# Test system: T1, C. trachomatis L2/434/Bu expressing GFP (CTL2-GFP)
# T1 construct: L2/434/Bu GFP intracellular growth in HeLa cells
# Set-up: species or system HeLa; C. trachomatis total inclusion area by high-content imaging, normalised to DMSO
# Conditions: total inclusion area; 28.5 h, 10 µM; inhibitor
# Method in brief: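 Following bulk GFP and resorufin fluorescence reads, infected cells were fixed, Hoechst-stained and imaged on a high-content platform. Inclusion total area and number per well served as growth proxies; nuclei counts indicated host viability. MICs were derived as for the fluorescence assay.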
row,Structure (SMILES),% of control remaining
1,CCc1nc2ccc(C(=O)N3CCN(C)CC3)cn2c1N(C)Cc1ccc(NC(C)=O)cc1 [CBK145603],101.069
2,O=c1c2ccccc2nc2c3ccccc3c(NCc3ccccn3)nn12 [CBK265964],88.0301
3,Cn1c(C(=O)N2CCc3ccccc3C2)cc2ccccc21 [CBK200337],102.386
4,COc1ccccc1-c1cnc(N)c(NCc2ccccc2)n1 [CBK063357],129.37
5,Cc1cccn2cc(-c3ccc4c(c3)CCN4S(C)(=O)=O)cc12 [CBK285226],116.882
6,Cc1c2c(n(-c3ccccc3)[n+]1[O-])NC1(CCC1)[C@@H]1C[C@@H](O)[C@@H](O)[C@H]21 [CBK303253],89.582
7,Cc1ccc(C2(O)CCN(CCNC(=O)C3CC3C)CC2)cc1 (stereo not drawn) [CBK282607],92.4028
8,Cc1nc(-c2ccc(CNC(=O)c3cc(=O)[nH]c4ccccc34)o2)cs1 [CBK238261],104.036
9,CN(C)C(=O)Cn1nc(C(c2ccccc2)c2ccccc2)oc1=O [CBK283747],93.8097
10,c1ccc(-c2cc(CC3(NCc4cccnc4)COC3)no2)nc1 [CBK289238],119.503
11,CNC(=O)CN1CCC[C@@H]2NC(=O)COc3ccccc3C(=O)N[C@@H]3CCOC[C@@H]3C/C=C/C[C@@H]21 [CBK292040],84.392
12,Cc1cc(C(=O)N2CCC(C(=O)c3ccnn3C)CC2)sc1C [CBK284428],73.6679
13,Cc1ccc2cc3c(nc2c1)OCC(=O)N(Cc1ccco1)C3 [CBK283539],88.4813
14,CC(=O)N1CCC(N2CC[C@H](c3nnc(-c4ccco4)o3)C2)CC1 [CBK289395],118.046
15,O=C(Nc1ccn(C23CC4CC(CC(C4)C2)C3)n1)c1ccco1 [CBK288023],84.2923
16,Cc1[nH]c2ccc(F)cc2c1-c1cn2c3c(nnc2n1)CCCC3 [CBK283172],123.342
17,O=C(Nc1ccccc1)[C@H]1O[C@H](CCN2CCN(c3ccccn3)CC2)CC[C@@H]1O [CBK288726],103.021
18,COC(=O)C(C)CSc1ccc(C(C)(C)C)cc1 (stereo not drawn) [CBK010499],76.7746
19,CCOC(=O)c1cnc2c(C)c(Cl)ccc2c1NCCN(C)C [CBK265965],83.6669
20,COc1ccc(C(CNC(=O)C(=O)Nc2ccc(C(=O)O)cc2)N(C)C)cc1 (stereo not drawn) [CBK286724],41.4191
21,O=C(Nc1nnc(-c2ccccn2)o1)c1cc(Cl)ccc1Cl [CBK287429],86.8208

row,Structure (SMILES),% of control remaining
1,Cc1cc(COc2cc(N3CCCC3)ncn2)no1 [CBK115898],110.627
2,O=C1C2N=NN(Cc3ccccc3)C2C(=O)N1C1CCCCC1 (stereo not drawn) [CBK067389],113.212
3,C[C@H](c1ccccc1)n1c(=O)[nH]c2ncc(-c3cncc4ccccc34)nc21 [CBK064709],139.137
4,Cn1nc(C2CC2)cc1NS(C)(=O)=O [CBK038148],127.451
5,Cc1cc(NC(=O)CCn2cc(Br)cn2)no1 [CBK304326],46.1289
6,Cc1ccnn1CCNC(=O)C(C)Cc1cccs1 (stereo not drawn) [CBK281633],98.7553
7,Cc1nn(CC(=O)NC(C)c2cccnc2)c(C)c1C (stereo not drawn) [CBK281489],74.4395
8,O=C(c1ccccc1F)N1C[C@H](c2ccsc2)[C@H]2CN(Cc3ccsc3)CC[C@H]21 [CBK285661],78.1919
9,CN(CCOC(=O)c1cccnc1)C(C)(C)C [CBK027543C],120.839
10,CCOc1ccc(CSC2=NCCN2)cc1Cl [CBK027449C],97.3113
11,Cc1ccc(OCCn2ccnc(N3CCNCC3)c2=O)c([N+](=O)[O-])n1 [CBK001381C],86.2087
12,CC1(C)CCN(Cc2ccccc2)C1CC#N (stereo not drawn) [CBK006978C],81.7004
13,CC(C)Nc1nc2ccccc2nc1SCCc1ccncc1 [CBK103670],73.5498
14,CC(Cn1cncn1)NS(=O)(=O)c1cccc(C(=O)N2CCCCC2)c1 (stereo not drawn) [CBK306594],77.4642
15,COc1nccnc1N1CCN(CC(=O)Nc2c(C)cccc2C)CC1 [CBK084220],88.5202
16,CCN(CC(=O)NCc1ccc(C)cc1)S(=O)(=O)c1ccc(C)cc1 [CBK267511],86.3852
17,O=C(c1cccnc1)C1CCN(C(=O)Cc2ccc(F)cc2)CC1 [CBK283515],87.7279
18,S=C(NCCc1ccccc1)NCCn1cc(Cl)cn1 [CBK266912],87.028
19,CCC1CCCCN1C(=O)c1cc(Br)c(Br)s1 (stereo not drawn) [CBK089360],78.7414
20,CCCc1nc(-c2ccc3c(c2)CCCN3S(C)(=O)=O)cs1 [CBK306253],130.021
21,Cc1c(Cl)cccc1NC(=S)NNC(=O)C(C)Oc1ccc(F)cc1F (stereo not drawn) [CBK266823],85.291

row,Structure (SMILES),% of control remaining
1,Cc1nnc2n1CCN(C(=O)CC1OCCc3sccc31)C2 (stereo not drawn) [CBK304956],81.807
2,O=C(c1cc2c(s1)CCCC2)N1CCCCC1c1nnc(-c2nccc3ccccc23)o1 (stereo not drawn) [CBK285577],116.193
3,CC(=O)c1ccccc1-c1ccc(C(=O)N2CCN(C)CC2)c(NCC2CC2)n1 [CBK076613],106.646
4,Cc1ccccc1C(NC(=O)C1CCN(C(=O)CCC2CCCC2)CC1)c1ccccn1 (stereo not drawn) [CBK059677],101.315
5,O=C(OCc1ccccc1)N1CCC2(CC1)CN(c1ccc(C(F)(F)F)cn1)CCO2 [CBK161116T],92.1607
6,COCCOCC(=O)N1CC(=O)N(c2ccccc2C#N)CC1C (stereo not drawn) [CBK307258],61.6607
7,O=C(Cc1cccc(F)c1)N1C2CCC1CC(O)(c1ccco1)C2 (stereo not drawn) [CBK284138],97.6877
8,S=C(Nc1ccc(Nc2ccccc2)cc1)N1CCN(Cc2ccc3c(c2)OCO3)CC1 [CBK266141],111.189
9,Nc1ncc(-c2ccc(C(=O)N3CCOCC3)cc2)nc1-c1ccc(C[C@H](N)C(=O)O)cc1 [CBK126364],106.062
10,Cc1cc(C(=O)NC2CCCC2)n[nH]1 [CBK200240],99.9265
11,CC(C)N(C(=O)Cn1nc(-c2cccs2)ccc1=O)C(C)C [CBK282638],131.847
12,Cc1noc(CN2CCNC(=O)C2c2ccccc2C(F)(F)F)n1 (stereo not drawn) [CBK306405],86.2938
13,NC(=O)CC1C(=O)N(c2ccc(F)cc2)C(=S)N1NC(=O)CCc1ccccc1 (stereo not drawn) [CBK268978A],119.937
14,O=C(CNS(=O)(=O)c1ccc(Br)cc1)N1CCN(Cc2ccc3c(c2)OCO3)CC1 [CBK074358],83.8213
15,O=S(=O)(NCC1COc2ccccc2O1)c1cc(Cl)sc1Cl (stereo not drawn) [CBK057394],90.8597
16,COc1cccc2cc(C(=O)NCCc3ccc(O)cc3)oc12 [CBK149802],83.1585
17,N#Cc1ccc(CN2C(=O)c3ccccc3C2=O)cc1 [CBK029022],100.151
18,CCCn1cnc2cc(NC(=O)c3ccc(=O)n(CC(=O)N(C)c4ccccc4)c3)ccc21 [CBK286026],79.4614
19,CC1CN(Cc2cccc(CNc3ncccc3C#N)c2)CCO1 (stereo not drawn) [CBK303994],48.1414
20,CN(Cc1cnn(C)c1)c1nccc(N2CCN[C@H]3CS(=O)(=O)C[C@H]32)n1 [CBK306964],87.5781
21,c1ccc2c(c1)nc1n2CCN1CCN1CCCCC1 [CBK278283C],98.3418

row,Structure (SMILES),% of control remaining
1,CC(C)Oc1ncc(C(=O)NCCCC(=O)O)cc1Cl [CBK305192],66.1294
2,O=C(CN1CCN(CCN2C(=O)c3cccc4cccc(c34)C2=O)CC1)c1ccc(Cl)cc1 [CBK265363],95.5387
3,CC(C)c1cc(C(=O)N2C[C@H](C)N(Cc3ccco3)C[C@@H]2C)on1 [CBK283053],82.2758
4,Cc1cc(S(=O)(=O)NCC(C)n2nc(C)c(C)c2C)ccc1F (stereo not drawn) [CBK282010],81.065
5,CCN1CCN(C(=O)c2ccc(C)c(S(=O)(=O)Nc3cccc(C)c3)c2)CC1 [CBK268226],86.1874
6,Cc1ccc(CN2CCCC(n3c(=O)oc4ccccc43)C2)o1 (stereo not drawn) [CBK284871],112.875
7,Nc1ncc(-c2ccc(-c3ccccc3)cc2)nc1NC1CCCCC1 [CBK063572],108.035
8,CN(C)[C@@H]1CN(Cc2ccc(O)cc2)C[C@H]1c1cn(C)c2ccccc12 [CBK284952],95.7825
9,Cc1cc2cc(C(F)(F)F)nc-2n(CC(=O)NC2CC2)c1 [CBK282888],71.7324
10,Cc1ccc(Oc2c([N+](=O)[O-])ncn2C)c(Br)c1 [CBK002819],45.7174
11,O=C(O)c1ccc(Cl)c2c1C1C=CCC1C(c1ccccn1)N2 (stereo not drawn) [CBK287087],110.904
12,CCC(C)Oc1ccccc1OCCN1C(=O)NC(C)(C)C1=O (stereo not drawn) [CBK267362],128.854
13,O=C(c1ccc2c(c1)CCCO2)N(Cc1ccccn1)CC1CCCO1 (stereo not drawn) [CBK307488],59.7319
14,CN1CCN(c2ccnc3cc(Cl)ccc23)CC1 [CBK066867C],83.672
15,Nc1ncc(-c2cccc(OC(F)(F)F)c2)nc1-c1ccc(C(=O)N2CCOCC2)cc1 [CBK064091],119.716
16,CN1CCCCC1CC(=O)Nc1ccc2ncn(C)c2c1 (stereo not drawn) [CBK281747],109.82
17,COc1cc2c(cc1OC)CN(C(=O)C1CCN(C)CC1)CC2 [CBK122744],107.053
18,Cc1[nH]c2ccccc2c1/C=N/c1cccc2c(/N=C/c3c(C)[nH]c4ccccc34)cccc12 [CBK261227],92.8756
